PubChem BioAssay AID686970 (National Center for Advancing Translational Sciences (NCATS), 2013)
Out of some 360,000 compounds screened, about 6,000 (1.7%) were called active. Inconclusive means that the source gave no clear call. Such entries were picked first, then a sample of the others. The call rests on the fitted dose curve; in most records, active means well fitted cell-killing curve with a large enough effect; inconclusive means small, poorly fitted or top-dose-only effect, or effect the other way; inactive means flat fitted curve, though single readings scatter. Potencies of inconclusive entries are left out as doubtful fits.

Test: qHTS for induction of synthetic lethality in tumor cells producing 2HG: qHTS for the HT-1080-NT fibrosarcoma cell line;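 further: NT is the 2HG producing partner of a matched IDH1 knockdown line; nearly all actives have a fitted effect of over 55% in size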;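 on activity, negative = less viability: 0% = DMSO-treated cells and -100% = media-only wells without cells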
Settings: HT-1080-NT fibrosarcoma viability, CellTiter-Glo ATP luminescence, 48 h; activity, negative = less viability: at 46.1 µM (top of the series) unless noted
Outline: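 Toxicity toward the 2HG-producing NT line was scored as %Activity, normalised to DMSO and no-cell wells, from CellTiter-Glo luminescence after 48 hours' treatment.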
Potency means the concentration at half of the fitted maximal effect; tags describe the fitted curve by direction and shape.

For `Cc1c([C@H]2[C@@H](CC#N)C2(C)C)c2ccccc2n1C`, which “activity, negative = less viability” value is on record?
Its value is inactive: -0.82%.

Which Potency does the source give for `C=CCn1c(SCC(=O)Nc2ccccc2OC)nnc1-c1ccccn1` here?
Its Potency is inconclusive [cytotoxic, single point].

With `c1ccc(COc2ncnc3c2ncn3CCCNC2CCN(Cc3ccccc3)CC2)cc1` as the compound, how does the Potency read?
The Potency was active: 23.1 µM.

With `CCCS(=O)(=O)NC(=O)C1(C)CCCN(C(=O)c2ccncc2)C1` (configuration not stated) as the compound, how does the Potency read?
The Potency was inconclusive [rising, full curve].

Which “activity, negative = less viability” value does the source give for `O=C(NCCCN1CCCC1=O)C1CCN(S(=O)(=O)c2ccc(Cl)cc2)CC1` here?
Its value is inactive: 15.4%.

With `COc1ccc(-c2nnc(Sc3nc4ccccc4o3)c3ccccc23)cc1` as the compound, how does the Potency read?
Its Potency is inconclusive [cytotoxic, single point].

For `O=C1C=C(c2ccc(Cl)cc2)C(=O)N1Nc1ccccc1`, which Potency is on record?
Its Potency is active: 23.1 µM.

With `CN(C)C1CN(Cc2cn(Cc3ccc(C(F)(F)F)cc3)nn2)S(=O)(=O)C1` (configuration not stated) as the compound, how does the “activity, negative = less viability” value read?
The value was inactive: 9.09%.

Which Potency does the source give for `COc1ccc(C2c3[nH]c4ccccc4c3CCN2Cc2ccoc2)c(F)c1` (configuration not stated) here?
Its Potency is inconclusive [cytotoxic, single point].

For `O=C(CCn1cnc2ccccc21)N/N=C/c1ccccc1O`, which Potency is on record?
The Potency was inconclusive [cytotoxic, partial curve].

Which Potency does the source give for `CCn1c(CNC(=O)COc2ccc(C(C)C)cc2)nnc1SCC(=O)Nc1cc(F)ccc1C` here?
The Potency was inconclusive [cytotoxic, single point].

Which “activity, negative = less viability” value does the source give for `Cc1ccc(NC(=O)CNc2ccccc2CN(C)C2CCCCC2)cc1` here?
The value was inactive: -23.8%.

With `NC(=S)n1[nH]c(-c2ccc([N+](=O)[O-])cc2)c(N=Nc2ccccc2[N+](=O)[O-])c1=O` as the compound, how does the “activity, negative = less viability” value read?
The value was inactive: -1%.

Which Potency does the source give for `N#Cc1c(NC(=O)c2cc(C3CC3)on2)sc2c1CCC2` here?
Its Potency is inconclusive [cytotoxic, single point].

With `Cc1ccc(-c2cc3c(nn2)-c2ccccc2C3=O)cc1` as the compound, how does the Potency read?
The Potency was inconclusive [cytotoxic, partial curve].

With `COc1ccc2[nH]c3c(c2c1)CCN1C(=O)C(CC(=O)NC/C=C(\C)CCC=C(C)C)C[C@H](C(=O)N(C(C)C)C(C)C)[C@@]31C` (some centres not stated) as the compound, how does the Potency read?
Its Potency is inconclusive [cytotoxic, single point].

With `[O-]C(=C(C(=S)Nc1cccc2ccccc12)[n+]1ccccc1)c1ccc2c(c1)OCCO2` as the compound, how does the “activity, negative = less viability” value read?
Its value is inactive: 3.1%.

Which Potency does the source give for `COc1ccc(CCn2c(C)nc3c(c(=O)c4ccccc4n3C)c2=O)cc1` here?
Its Potency is inconclusive [cytotoxic, partial curve].

Which Potency does the source give for `CC(C)(C)NC(=O)CSc1nc2ccc(Nc3nc(N4CCOCC4)nc(N4CCOCC4)n3)cc2s1` here?
The Potency was inconclusive [cytotoxic, single point].

For `Cc1nnc(NCCc2ccccc2)c2ccccc12`, which “activity, negative = less viability” value is on record?
The value was inactive: -3.01%.

With `O=C(c1ccc(CS(=O)Cc2ccc(Cl)cc2)o1)N1CCN(c2cccc(Cl)c2)CC1` (configuration not stated) as the compound, how does the Potency read?
The Potency was inconclusive [cytotoxic, single point].

For `O=C(NCC(c1cccnc1)N1CCN(c2ccccc2F)CC1)C1CCCCC1` (configuration not stated), which “activity, negative = less viability” value is on record?
The value was inactive: 3.03%.

For `O=C(CSc1nnc(-c2ccc(Cl)cc2)n1-c1ccc(Cl)cc1)N/N=C/c1ccco1`, which Potency is on record?
Its Potency is inconclusive [cytotoxic, single point].

With `Cc1ccc(C(=O)NCc2ccco2)cc1S(=O)(=O)Nc1cccc(C)c1C` as the compound, how does the Potency read?
The Potency was inconclusive [cytotoxic, partial curve].

For `COc1cccc(-c2nc(-c3ccccc3)c3ccc(Cl)cc3n2)c1`, which “activity, negative = less viability” value is on record?
The value was inactive: 12%.

Which Potency does the source give for `CCN1CCN(C(=O)Nc2ccc(Cc3ccc(NC(=O)N4CCN(CC)CC4)cc3)cc2)CC1` here?
Its Potency is inconclusive [cytotoxic, partial curve].

Which activity, negative = less viability does the source give for `C/C(=N\NC(=O)c1nnn(-c2nonc2N)c1CN1CCCCC1)c1ccccc1O` here?
The activity, negative = less viability was inconclusive: -16.6% [cytotoxic].

With `Cn1c2ccccc2c2cc(C(=O)NNC(=O)CCl)sc21` as the compound, how does the Potency read?
Its Potency is inconclusive [cytotoxic, partial curve].

For `Cc1cccc(-c2noc(CN(C)C(=O)c3ccc4c(c3)OCO4)n2)c1`, which “activity, negative = less viability” value is on record?
Its value is inactive: -22.9%.

Which “activity, negative = less viability” value does the source give for `CC(=O)C[C@H](O)CC(=O)[C@H]1OC(=O)CCCCCCCCc2ccccc21` here?
The value was inactive: 0%.

For `COc1ccccc1/C=C/CN1CCCC(CO)(Cc2cccc(Cl)c2)C1` (configuration not stated), which Potency is on record?
Its Potency is active: 25.9 µM.

With `Cc1nc(SCC(=O)Nc2ccc3c(c2)OCO3)c(C#N)c2c1CCCC2` as the compound, how does the “activity, negative = less viability” value read?
Its value is inactive: -0.893%.

Which Potency does the source give for `CCOC(=O)NC(Nc1ccc(OC)cc1)(C(F)(F)F)C(F)(F)F` here?
Its Potency is inconclusive [cytotoxic, single point].

With `CCCOc1ccc(NC(=O)CC2C(=O)N(CC)C(=S)N2CCCN2CCN(Cc3ccccc3)CC2)cc1` (configuration not stated) as the compound, how does the Potency read?
The Potency was active: 16.4 µM.

Which Potency does the source give for `COc1ccc(O)c(-c2cc(-c3ccc(F)cc3)n[nH]2)c1` here?
The Potency was inconclusive [cytotoxic, single point].

Which “activity, negative = less viability” value does the source give for `CCn1c(CNC(=O)c2ccc3c(c2)OCO3)nnc1SCC(=O)Nc1ccccc1F` here?
Its value is inactive: -0.0661%.

Which “activity, negative = less viability” value does the source give for `O=C(NCc1ccc(F)cc1)C1CCCN(c2cnccn2)C1` (configuration not stated) here?
Its value is inactive: 5.85%.

For `CCc1nc2ccc(C(=O)NCCc3c[nH]c4ccccc34)cn2c1N(C)CCCc1ccccc1`, which Potency is on record?
Its Potency is inconclusive [cytotoxic, single point].

With `COc1cc(C2Nc3ccccc3NC3=C2C(=O)CC(C)(C)C3)cc(OC)c1OC` (configuration not stated) as the compound, how does the “activity, negative = less viability” value read?
Its value is inactive: -1.34%.

For `COCCCNC(=O)CSc1nc2sc(C(=O)OC)c(C)c2c(=O)n1N`, which “activity, negative = less viability” value is on record?
Its value is inactive: 21%.

Which Potency does the source give for `Cc1ccc2nc(-c3ccc(NC(=O)C(C)Sc4nncs4)cc3)sc2c1` (configuration not stated) here?
The Potency was inconclusive [cytotoxic, single point].

For `CCN(CC)CC(O)CN(c1ccccc1)S(=O)(=O)c1ccc2ccccc2c1` (configuration not stated), which Potency is on record?
The Potency was inconclusive [cytotoxic, single point].

Which Potency does the source give for `C(#CCN1CCCC1)CC(c1ccccc1)c1ccccc1` here?
The Potency was inconclusive [cytotoxic, single point].

With `O=C1OCCC1Sc1nnnn1-c1ccc(Cl)cc1` (configuration not stated) as the compound, how does the “activity, negative = less viability” value read?
Its value is inactive: 11.3%.

For `COc1cc(/C=N/Nc2ccc(Cl)c(C(=O)O)c2)ccc1OC(=O)c1ccco1`, which “activity, negative = less viability” value is on record?
The value was inactive: 2.4%.

Which Potency does the source give for `CNc1cc(N2CCCCCC2)ccc1[N+](=O)[O-]` here?
The Potency was inconclusive [cytotoxic, single point].

With `Cc1ccc(S(=O)(=O)CCC(=O)Nc2nc(-c3ccncc3)cs2)cc1` as the compound, how does the “activity, negative = less viability” value read?
Its value is inactive: 0.604%.
